Read counts are not given, so values of variants with three or more changes are uncertain.
B1: LINE1-full (parent)
chain: UACGUAGGUGGUUUUCCCCUGAUAGUGCUAAGGGGGCCUGGAAGUUUGGACUGGGCAGAGCUCAACACAGCGUGGCAAAGUGGCUGUGGCUAGACUGCCUCUCUGGAUUCCUCGUCACUCAGCAGGGCAUCUCUGAGAGAAAUGCC

Variants of: B1
Assay: self-cleavage, relative activity (ratio to wild type); higher = more cleavage; in vitro, sequencing; the parent is a self-cleaving ribozyme

Variant | self-cleavage
U47A U62C G88A | 0.02
U1C A78G A136G A138G | 1.36
A2G A31G G34A A77G A121G A142G | 0.77
A50U U85A A121C | 0.05
U13C G54A A65G A136G | 0.07
U9C A69G U87G A121U G135U | 0
A2G C3U U20A A22U | 0.56
C38U C71U U85C A94G | 0.02
A64U A94G A142G | 0.08
A50U U62C A92U U112C G114A | 0.09
G32C U52C A64G | 0.5
U29C C71U U119C | 1.88
U15C U96C U143G | 0
U13C U14C U20C A65U A77U U87C A140U | 0.66
A78G U102A A142G | 1.47
G32A U132A A142G | 1.07
G34C U52A A142G | 1.29
A2U U23C A24U U100C A136G | 0.8
U1C A43G U102C | 1.11
U15C C37U U85A | 0.05
A42G U62C A67G | 0

Variant | self-cleavage
A67G U96A A142G | 0.06
U9C A78G U104A | 1.33
U9C U13C U26A | 0.84
U20A A57G G105U A138G | 0.79
U52C A140G A142G | 1.77
U5C U15A C51U U112A A140G | 0.54
U5C A69U A107U | 0.15
U109C A138G A142G | 1.84
U14C U39C U52C A69G A138U | 0
A6G U26C C103U A117U | 0.84
U15C A24G U134C | 1.35
A50G U87A U104C | 0.04
C56U A77C A78G U91A | 0.12
A22G U81A G83A | 1.47
A79G U119A U132C | 0.9
U14C U85C U112C A138G | 0.48
U23C A43G A79G G127U A142G | 0.84
U13C U85C U100C A140G | 0
U12C G32A U46C A57G | 0.66
U26A A107G A129U | 0.95
A2G U39C U46A A121G A142G | 0.34

Variant | self-cleavage
C71A U108C U115C | 0.82
U9A U39A A42G | 0.72
G27A A92G U102C A136U | 0
A30G U45A U96C U100C U130C A142G | 0
G7A U62A A65G A94G | 0
A43G U45A A78G A138G | 1.2
G32A U91A A140G | 0.67
U39C G58U U134A | 0.03
G75A A129U A136G | 0.97
G34A U62C U85C U112C | 0.12
G58A U100C U132C A140G | 0.06
U47C U112A A124G | 1.23
G82A A121U U132G | 2.2
U14C U100C C145U | 1.68
G7C U14C A69U U100A | 0.25
U85A A124U U130C U132A | 0.11
U23C C38U A42G U47A | 1.11
U5C G34A A141G | 1.5
A69G U85A A121G | 0
U5C A24U U62C U96C A140G G144A | 0
C37U U132C G139A C145U | 1.16

Variant | self-cleavage
U12C U13C A77G A142G | 1.35
U14C G88A G114A | 0.08
A22G U39C U73C U130C | 1.53
U15C A30G U108C U115A U143C | 1.41
A43G G55A U119C U143C | 0
U9C C66A U87C A138G C146A | 0.66
U1C A22G A138G | 1.08
A6G U12C A59U U73A | 0.79
A2G A24G G41A G53A A136U | 0.53
U26C A77U A121G | 1.5
U12A A57G U87C | 0
A59U G74A U100C U109C A140U | 0.92
U12C G44A U91C | 1.01
U14C U39G U81G | 1.45
U9A U47C U132C | 0.89
U20C A117G U132C | 1.53
U13C C19U A24G A140G | 1.01
A2G U20A U52C | 0.28
U13C U47C U108C | 0.48
U5C C17U U112C | 0.84
U13C U85C U115C U132C | 1.25
